# Hit rate of the full screen: of about 420,000 compounds, about 64,000 (15%) were called active. Inconclusive means that the source gave no clear call. Such entries were picked first, then a sample of the others. Calls come from the whole dose curve; as a rule, active = well fitted inhibition curve with a large enough effect; inconclusive = small, poorly fitted or top-dose-only effect; inactive = flat fitted curve, though single readings scatter. Potencies of inconclusive entries are left out as doubtful fits.
# Assay: qHTS for Inhibitors of human tyrosyl-DNA phosphodiesterase 1 (TDP1): qHTS in cells in absence of CPT; note: nearly all actives have a fitted effect of over 55% in size
# Conditions: DT40 Tdp1-/- hTDP1 cells, no CPT, ATP luminescence, 48 h; activity change, negative = growth inhibition: at 46.2 µM (top of the series)
# In short: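 Chicken DT40 Tdp1-/- cells stably complemented with human TDP1 were seeded at 400 cells/well with DMSO in place of 20 nM camptothecin. After compound pinning, cells grew at least 48 hr at 37 °C; viability read by CellTiter-Glo luminescence.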
# % is set by controls: 0 for no effect and ±100 for the full control effect; potency is the fitted concentration of half-maximal effect; tags give direction and shape of the fitted curve.
SMILES,Potency,"activity change, negative = growth inhibition"
COc1ccc(CCNC(=O)CCc2c(C)c3ccc(O)c(C)c3oc2=O)cc1,"inconclusive [inhibitor, single point]",–
CCc1ccc(N=Nc2ccc(O)c3[nH]cnc23)cc1,active: 23.1 µM,–
O=C(NC1CCCCC1)C1c2ccccc2OCC(=O)N1Cc1ccccc1 (configuration not stated),–,inconclusive: -34.6% [inhibitor]
Cc1ccc(S(=O)(=O)NCC(C)n2cncn2)cc1C (configuration not stated),–,inactive: 4.08%
NC(=S)Nc1cc2ccccc2c2ccccc12,"inconclusive [inhibitor, partial curve]",–
Cc1c(CCC(=O)N[C@@H](CC(C)C)C(=O)O)c(=O)oc2c(C)c3oc4c(c3cc12)CCCC4,–,inactive: -5.98%
COc1cccc(/C=N/NC(=O)c2c(C)nc3ccc(Cl)cn23)c1OC,"inconclusive [inhibitor, single point]",–
COc1cc(OC)c(NC(=O)CCc2nc(C3=CCN(Cc4cccc(Cl)c4)CC3)no2)cc1Cl,active: 8.2 µM,–
Cc1cccc(N2CCN(C(=O)CS(=O)(=O)Cc3nc(-c4ccccc4F)oc3C)CC2C)c1 (configuration not stated),"inconclusive [inhibitor, single point]",–
CC(C)Oc1ccc(CNC(=O)Oc2ccccc2)cc1,–,inactive: -11.9%
COc1ccccc1CNc1ccc2nnc(CCNC(=O)c3ccc(C)cc3)n2n1,"inconclusive [inhibitor, partial curve, poor fit]",–
CC(NC(=O)COC(=O)C1CCCCC1)c1ccccc1 (configuration not stated),–,inactive: 2.03%
Cc1ccsc1CN1CCC(C(=O)NCc2ccccc2Cl)CC1,–,inactive: 1.93%
COc1cccc(C2C(=O)N(C3CCCCC3)CC(=O)N2CCc2ccc(OC)c(OC)c2)c1 (configuration not stated),"inconclusive [inhibitor, single point]",–
S=c1[nH]nc(C2CCCCC2)n1/N=C/c1ccco1,–,inactive: -5.17%
c1ccc(C[C@H]2CNCCN2CCCCC2CCCCC2)cc1,"inconclusive [inhibitor, single point]",–
CC1(C(=O)NCc2ccc3c(c2)OCO3)CCN1CCc1ccccc1 (configuration not stated),–,inactive: -29.9%
CCCCOc1ccc(/C=C/C(=O)OCC(=O)N2CC(=O)Nc3ccccc32)cc1OCC,"inconclusive [inhibitor, single point]",–
COC(=O)C1CCN(C2=C(NS(=O)(=O)c3ccc(Cl)cc3)C(=O)c3ccccc3C2=O)CC1,–,inactive: -16.9%
O=C1C2C3C=CC(C3)C2C(=O)N1CCCCN1C(=O)C2C3C=CC(C3)C2C1=O (configuration not stated),–,inconclusive: -25% [inhibitor]
CCn1cnnc1SCC(=O)NCC1COc2ccccc2O1 (configuration not stated),active: 1.84 µM,–
CCOC(=O)C1CCN(C(=O)c2ccc(OCC(=O)Nc3cccc(C(F)(F)F)c3)cc2)CC1,"inconclusive [inhibitor, single point]",–
CCCNC(=O)C1(C)CCCN(Cc2cccc(Oc3ccccc3)c2)C1 (configuration not stated),"inconclusive [inhibitor, single point]",–
Oc1cccc(/C=N/Nc2cc(N3CCCC3)nc(N3CCCC3)n2)c1,"inconclusive [inhibitor, single point]",–

SMILES,Potency,"activity change, negative = growth inhibition"
CC(=O)C(C)n1cnc2scc(-c3ccc(C)cc3)c2c1=O (configuration not stated),"inconclusive [inhibitor, single point]",–
Cc1ccc(NC(=O)c2oc3ccccc3c2NC(=O)C2CCCCC2)cc1,"inconclusive [inhibitor, single point]",–
CC(Sc1ccccc1)C(=O)NCC(c1ccco1)N1CCCCC1 (configuration not stated),"inconclusive [inhibitor, single point]",–
Cc1ccccc1CNC(=O)CCCC(=O)n1nc(C)c2ccccc21,–,inactive: 19%
COc1ccc(-c2cc3nc4c(c(=O)n3[nH]2)CCC4)cc1,–,inconclusive: -32% [inhibitor]
O=c1cc(C(F)(F)F)oc2c1ccc1ccccc12,–,inactive: -27.7%
CC(=O)NCc1ccc(S(=O)(=O)N2CCCN(C)CC2)cc1,active: 23.1 µM,–
Nc1cc(-c2ccccc2)nn1Cc1ccccc1,"inconclusive [inhibitor, single point]",–
O=C(N=Nc1c(O)[nH]c2ccccc12)c1cccs1,"inconclusive [inhibitor, single point]",–
COc1ccc(NC(=S)N2CCCC(c3nc4ccc(C)cc4[nH]3)C2)c(OC)c1 (configuration not stated),"inconclusive [inhibitor, single point]",–
Cc1ccc(S(=O)(=O)NC(CC(C)C)C(=O)NCCCn2nc(C)cc2C)cc1 (configuration not stated),–,inactive: 3.25%
O=S(=O)(c1cccc(F)c1)N1CCCN(c2ccc(C(F)(F)F)cn2)CC1,–,inactive: -4.13%
COC(=O)[C@@]1(Cc2ccc(F)cc2)[C@H]2c3cc(C(=O)N(C)C)n(Cc4cc(F)cc5c4OCOC5)c3C[C@H]2CN1C(=O)c1ccccc1,"inconclusive [inhibitor, single point]",–
C=CCCN([C@H](CO)Cc1ccccc1)S(=O)(=O)c1ccccc1Br,–,inactive: -19.9%
Cc1[nH]c(=O)sc1C(=O)NCc1ccc([N+](=O)[O-])cc1,–,inactive: -25.6%
Cc1cc(C)c(NS(=O)(=O)c2ccc3c(c2)oc(=O)n3C)c(C)c1,"inconclusive [inhibitor, single point]",–
COc1ccc(-c2nn(-c3ccccc3)cc2/C=C(\C#N)C(N)=O)cc1[N+](=O)[O-],–,inactive: -3.58%
O=C(Nc1ccc(Cl)cc1)c1ccc2c(c1)N(Cc1ccccc1)CCS2,"inconclusive [inhibitor, single point]",–
CC(C)(C)NC(=O)COC(=O)c1ccc(S(=O)(=O)N2CCCCCC2)cc1,–,inactive: -2.41%
COc1ccc(OC)c(-c2cc(Cl)c3c(c2)CC(CNC(=O)c2cccnc2SC)O3)c1 (configuration not stated),"inconclusive [inhibitor, single point]",–
O=C(c1cc(S(=O)(=O)N2CCCC2)c(Cl)cc1Cl)N1CCCC1,–,inactive: -12.3%
Cc1ccc(-c2nn3c(C)nnc3s2)cc1NC(=O)CSc1ccc(Cl)cc1,active: 18.4 µM,–
Cc1cc(Cl)ccc1OCC(=O)N(Cc1cccs1)C1CCS(=O)(=O)C1 (configuration not stated),"inconclusive [inhibitor, single point]",–
